{
  "source": "PubChem BioAssay AID1745845",
  "about": "(National Center for Advancing Translational Sciences (NCATS), 2022)",
  "note": "“And” between values parts separate entries of the source, which are not always exact repeats. Identical values can stand only once. Hit rate of the full screen: of about 360,000 compounds, about 2,600 (0.72%) were called active. The inconclusive results got no clear call from the source; some entries with a clear call stand among them for comparison. The call rests on the fitted dose curve; in most records, active means well fitted inhibition curve with a large enough effect; inconclusive means small, poorly fitted or top-dose-only effect; inactive means no such curve, though single readings can be large or run the other way. Potencies of inconclusive entries are doubtful fits and often do not repeat. Potency means the concentration at half of the fitted maximal effect; tags describe the fitted curve by direction and shape.",
  "data": [
    {"assay": "Primary qHTS for Inhibitors of ATXN expression; further: nearly all actives have a fitted effect of over 55% in size", "details": "HEK-293 ATXN2-luciferase reporter, luminescence, 24 h; series mostly up to 57 µM", "procedure,_shortened": "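ATXN2-luciferase reporter cells (luciferase flanked by upstream and downstream ATXN2 gene portions) were treated 24 h at 37 °C with compounds at up to 57 uM. SteadyGlo luminescence gave expression; GF-AFC fluorescence gave viability.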", "values": [
      {"smiles": "OCCC1CN(Cc2cccn2-c2cccnc2)CCN1C1CCCC1", "note": "(configuration not stated)", "Potency": "inactive"},
      {"smiles": "Cc1ccc(C)c(NC(=O)CCN2C(=O)[C@@H]3Cc4ccccc4CN3C2=O)c1", "Potency": "inactive"},
      {"smiles": "COc1cccc(CN(C)C(=O)c2ccc(NS(=O)(=O)c3ccc4[nH]c(=O)[nH]c4c3)cc2)c1OC", "Potency": "inactive"},
      {"smiles": "Cc1nc(N2CCCC2)ncc1C(=O)NCc1ccccc1Cl", "Potency": "inactive"},
      {"smiles": "C[C@H](CO)N1C[C@H](C)[C@@H](CN(C)Cc2ccccc2)Oc2c(NC(=O)C3CCCCC3)cccc2C1=O", "Potency": "inconclusive: 25.1 µM [inhibitor, single point]"},
      {"smiles": "COc1ccc(N)cc1-n1c(C)ccc1C", "Potency": "inconclusive: 0.1 µM [inhibitor, full curve, poor fit]"},
      {"smiles": "Cc1cccc(-c2[nH]c(C(C)(C)C)nc2-c2ccc3nccnc3c2)n1", "Potency": "active: 27.3 µM"},
      {"smiles": "Cc1cc(C)nc(N(C#N)CN2C(=O)c3ccccc3S2(=O)=O)n1", "Potency": "inactive"},
      {"smiles": "c1ccc(CSc2ncnc3c2oc2ccccc23)cc1", "Potency": "inactive"},
      {"smiles": "CCCCC(CC)Cn1c(Oc2ccccc2)nc2c1c(=O)n(C)c(=O)n2C", "note": "(configuration not stated)", "Potency": "inactive"},
      {"smiles": "Cc1onc(-c2ccccc2Cl)c1C(=O)NCc1nc(-c2ccc(C(F)(F)F)cc2)no1", "Potency": "inactive"},
      {"smiles": "CN(C(=O)c1cccc(NC(=O)C2CCCN(C(=O)OC(C)(C)C)C2)c1)C1CCC1", "note": "(configuration not stated)", "Potency": "inconclusive: 39.8 µM [inhibitor, single point]"},
      {"smiles": "CC[C@@]1(O)C(=O)OCc2c1cc1n(c2=O)Cc2cc3cc(O)ccc3nc2-1", "Potency": "active: 0.0385 µM"},
      {"smiles": "CC1(CN2CCC(n3c(=O)[nH]c4ccccc43)CC2)OCc2ccccc2-n2cccc21", "note": "(configuration not stated)", "Potency": "inconclusive: 7.69 µM [inhibitor, partial curve, poor fit]"},
      {"smiles": "COc1ccc(-c2ccc(C(c3c(C)[nH][nH]c3=O)c3c(C)[nH][nH]c3=O)o2)c([N+](=O)[O-])c1", "Potency": "inconclusive: 25.1 µM [inhibitor, partial curve, poor fit]"},
      {"smiles": "NC(=O)c1noc([C@H](CCCC2CCCCC2)CC(=O)NO)n1", "Potency": "inconclusive: 43.2 µM [inhibitor, single point]"},
      {"smiles": "Nc1ccccc1Nc1cccc(C(F)(F)F)c1", "Potency": "inconclusive: 42.3 µM [inhibitor, partial curve, poor fit]"},
      {"smiles": "CCOc1ccccc1N(CC)C(=O)c1cc2c(=O)n(CC)c3ccccc3c2s1", "Potency": "inconclusive: 35.5 µM [inhibitor, single point]"},
      {"smiles": "CCOc1ccccc1C(=O)Nc1cc2c(cc1N1CCCCC1)n(C)c(=O)n2C", "Potency": "inconclusive: 35.5 µM [inhibitor, single point]"},
      {"smiles": "CC(C)C1C(=O)N(Cc2cn(Cc3ccco3)nn2)CCS(=O)(=O)N1Cc1ccc(-c2ccc(F)cc2)cc1", "note": "(configuration not stated)", "Potency": "inconclusive: 28.2 µM [inhibitor, partial curve, poor fit]"},
      {"smiles": "Cc1cc(C)cc(NS(=O)(=O)c2ccc3[nH]cc(C(=O)NCc4ccco4)c(=O)c3c2)c1", "Potency": "inconclusive: 28.2 µM [inhibitor, single point]"},
      {"smiles": "CC1=C(C(=O)N2CCCCCC2)CC(CC(=O)NC2CCCCC2)C(=O)N1Cc1ccc(C(C)(C)C)cc1", "note": "(configuration not stated)", "Potency": "inconclusive: 39.8 µM [inhibitor, single point]"},
      {"smiles": "CN(c1ccccc1)S(=O)(=O)c1cc(C(=O)N2CCN(c3ccccn3)CC2)ccc1Cl", "Potency": "inconclusive: 31.6 µM [inhibitor, partial curve]"},
      {"smiles": "Cc1nc2ccc(NC(=O)c3cccc(S(=O)(=O)N4CC(C)OC(C)C4)c3)cc2s1", "note": "(configuration not stated)", "Potency": "inconclusive: 39.8 µM [inhibitor, partial curve, poor fit]"},
      {"smiles": "Cc1ccnc(NC(=O)c2cc3ccccc3o2)c1", "Potency": "inconclusive: 12.6 µM [inhibitor, single point]"},
      {"smiles": "CCC(c1ccc(O)cc1)C(CC)c1ccc(O)cc1", "note": "(configuration not stated)", "Potency": "inconclusive: 12.2 µM [inhibitor, full curve]"},
      {"smiles": "O=C(N/C=N/OCc1ccc(Cl)cc1Cl)NOCc1c(Cl)cccc1Cl", "Potency": "inconclusive: 14.1 µM [inhibitor, partial curve]"},
      {"smiles": "Cc1ccc2c(C)c(C(=O)NCC(c3ccc(Cl)cc3)N3CCOCC3)oc2c1", "note": "(configuration not stated)", "Potency": "inconclusive: 35.5 µM [inhibitor, single point]"},
      {"smiles": "Cc1cc(Nc2ccc3c(c2)OCCO3)c2ccccc2n1", "Potency": "inconclusive: 39.8 µM [inhibitor, partial curve, poor fit]"},
      {"smiles": "CCC(C)Sc1nc2ccccc2n1CC(=O)O", "note": "(configuration not stated)", "Potency": "inactive"},
      {"smiles": "COc1ccccc1N1CCN(Cc2cc(Br)c(O)c3ncccc23)CC1", "Potency": "active: 3.77 µM"},
      {"smiles": "CCc1nc2c(OCCOc3ccc(F)cc3)cccn2c1N(C)C(=O)c1ccc(OC)cc1", "Potency": "inconclusive: 25.1 µM [inhibitor, partial curve, poor fit]"},
      {"smiles": "Cc1ccc(Cl)cc1NC(=O)Nc1cn(CC(C)C)c(=O)c2ccccc12", "Potency": "inactive"},
      {"smiles": "CCOc1ccc(CCNC(=O)Cn2ccc3cc(S(=O)(=O)N4CCCCC4)ccc32)cc1", "Potency": "inconclusive: 25.1 µM [inhibitor, partial curve, poor fit]"},
      {"smiles": "COc1ccc(CCNC(=S)NC(=O)c2cc(OC)c(OC)c(OC)c2)cc1OC", "Potency": "inactive"},
      {"smiles": "CCN(CC)CC(=O)Nc1sc(C)c(C)c1C(=O)c1ccc(C)cc1", "Potency": "inactive"},
      {"smiles": "Cc1cccc(N2CC(C(=O)Nc3nc4ccc(S(C)(=O)=O)cc4s3)CC2=O)c1C", "note": "(configuration not stated)", "Potency": "inconclusive: 12.6 µM [inhibitor, partial curve, poor fit]"},
      {"smiles": "Cc1noc(/C=C/N(C)C)c1S(=O)(=O)N(C)Cc1ccc(F)cc1", "Potency": "inconclusive: 28.2 µM [inhibitor, single point]"},
      {"smiles": "COc1cc(/C=N/Nc2ccc(Cl)nn2)cc(OC)c1O", "Potency": "inactive"},
      {"smiles": "CCOC(=O)N1CCC(Nc2cc(C)nc3c(-c4ccccc4OC)c(C)nn23)CC1", "Potency": "inconclusive: 39.8 µM [inhibitor, single point]"},
      {"smiles": "CCOC(=O)N1CCN(C(=O)CSCC(=O)N=c2sc3cc(OC)ccc3n2C)CC1", "Potency": "inactive"},
      {"smiles": "Cc1ccc2[nH]c(=O)c3cc(C(=O)N(CCCOC(C)C)Cc4ccco4)sc3c2c1", "Potency": "inconclusive: 37.7 µM [inhibitor, single point] and inconclusive: 22.4 µM [inhibitor, single point]"}
    ]}
  ]
}
